Reference: publication PMC6664820, “Novel natural and synthetic inhibitors of solute carriers SGLT1 and SGLT2” (Pharmacology Research & Perspectives, 2019)
Among all 1,900 compounds or so, about 40 (2%) showed an effect of 50% or more. Some of the results follow.

What follows are molecules tested against human SGLT1 (hSGLT1) (human, UniProt P13866) (assay: primary screen, percent of control activity; higher = less effect of the substance). Details: 50 µM.
Set-up: single well
Method in brief: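 Single-point screen at 50 µmol/L in CHO-hSGLT1 cells, with 160 µmol/L 1-NBD-glucose in glucose-free DMEM for 90 min at 37°C. Fluorescence from isopropanol extracts was calibrated, and CHO wild-type uptake was subtracted. Data are percent of uptake without compound.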

Chain of human SGLT1 (hSGLT1) (P13866 whole entry, looked up): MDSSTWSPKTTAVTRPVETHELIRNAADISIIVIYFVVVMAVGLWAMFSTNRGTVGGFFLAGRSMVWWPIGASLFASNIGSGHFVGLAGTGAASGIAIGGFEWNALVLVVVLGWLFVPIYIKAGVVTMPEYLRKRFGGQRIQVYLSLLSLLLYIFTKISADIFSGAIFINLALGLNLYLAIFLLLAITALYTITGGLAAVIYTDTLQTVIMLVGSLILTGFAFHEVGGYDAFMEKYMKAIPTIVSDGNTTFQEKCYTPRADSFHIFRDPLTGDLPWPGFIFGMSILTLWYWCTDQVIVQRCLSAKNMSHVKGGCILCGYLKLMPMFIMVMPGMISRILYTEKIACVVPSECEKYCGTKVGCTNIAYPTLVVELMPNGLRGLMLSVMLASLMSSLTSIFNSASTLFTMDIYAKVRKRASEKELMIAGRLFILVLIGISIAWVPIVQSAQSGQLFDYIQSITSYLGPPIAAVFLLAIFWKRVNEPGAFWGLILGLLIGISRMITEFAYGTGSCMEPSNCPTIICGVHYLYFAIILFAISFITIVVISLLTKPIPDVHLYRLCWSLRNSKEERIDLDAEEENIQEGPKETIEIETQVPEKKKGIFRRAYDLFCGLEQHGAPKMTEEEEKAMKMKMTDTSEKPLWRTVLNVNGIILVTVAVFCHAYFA

Compared with `CC[n+]1c(-c2ccccc2)c2cc(N)ccc2c2ccc(N)cc21.[Br-]`, `O=c1c(-c2ccccc2)coc2cc(O)cc(O)c12` is higher in “NORMALIZED SGLT1 ACTIVITY (%)” value: 82% for the first, 167% for the second.

First: COc1ccc(CN(CCN(C)C)c2ncccn2)cc1.Cl
Second: CN(C)CCC=C1c2ccccc2CCc2ccccc21.Cl
The “NORMALIZED SGLT1 ACTIVITY (%)” value of the first is higher: 75% for the first, 59% for the second.

Going from `C[C@H]1[C@H]2CC[C@H]3[C@@H]4CC=C5C[C@@H](N(C)C)CC[C@]5(C)[C@H]4CC[C@]23CN1C` to `CC(C)CCCC(C)C1CCC2C3CC[C@H]4CC(=O)CC[C@]4(C)C3CC[C@]12C` (stereo partly drawn), the “NORMALIZED SGLT1 ACTIVITY (%)” value falls from 107% to 90%.

Going from `Cl.Cl.N=C(NCCCCCCNC(=N)NC(=N)Nc1ccc(Cl)cc1)NC(=N)Nc1ccc(Cl)cc1` to `O=C(O)CCC(=O)Nc1ccc(S(=O)(=O)Nc2nccs2)cc1`, the “NORMALIZED SGLT1 ACTIVITY (%)” value rises from 25% to 208%.

First: Cc1c(O)c(C(=O)CC(C)C)c2oc3c(C(=O)CC(C)C)c(O)c(C)c(O)c3c2c1O
Second: CC(=O)O[C@@H]1c2c(ccc3ccc(=O)oc23)OC(C)(C)[C@@H]1OC(=O)CC(C)C
The “NORMALIZED SGLT1 ACTIVITY (%)” value of the first is higher: 107% for the first, 51% for the second.

First: CC[N+](C)(C)c1cccc(O)c1.[Cl-]
Second: COc1cccc(O)c1O
The “NORMALIZED SGLT1 ACTIVITY (%)” value of the first is lower: 94% for the first, 97% for the second.

First: CCCC(CCC)C(=O)[O-].[Na+]
Second: CCN(CC)CCNc1ccc(CO)c2sc3ccccc3c(=O)c12
The “NORMALIZED SGLT1 ACTIVITY (%)” value of the first is lower: 105% for the first, 184% for the second.

First: CCNc1nc(Cl)nc(NCC)n1
Second: CN(C)c1nc(N(C)C)nc(N(C)C)n1
The “NORMALIZED SGLT1 ACTIVITY (%)” value of the first is higher: 113% for the first, 103% for the second.

Compared with `COC(=O)C[C@H]1C(C)(C)C(=O)[C@@H]2CC3=C(CC[C@]4(C)C3=CC(=O)O[C@H]4c3ccoc3)[C@@]1(C)C2=O`, `CC(=O)O[C@@H]1C[C@@]2(C)[C@H](c3ccoc3)C[C@H]3O[C@]32[C@]2(C)C(=O)C(O)=C3C(C)(C)C(=O)C=C[C@]3(C)C12` (stereo partly drawn) is lower in “NORMALIZED SGLT1 ACTIVITY (%)” value: 164% for the first, 104% for the second.

First: C=C1CC[C@H](O)C/C1=C/C=C1\CCC[C@]2(C)[C@@H]([C@H](C)/C=C/[C@H](C)C(C)C)CC[C@@H]12
Second: CC(CCC(=O)O)[C@H]1CCC2C3C(=O)C[C@@H]4CC(=O)CC[C@]4(C)C3CC(=O)[C@@]21C (stereo partly drawn)
The “NORMALIZED SGLT1 ACTIVITY (%)” value of the first is higher: 143% for the first, 115% for the second.

Going from `COC(=O)C1[C@H]2C[C@H]3c4[nH]c5ccccc5c4CCN3C[C@@H]2CC[C@@H]1O.Cl` (stereo partly drawn) to `CC(=O)Oc1ccc2c(c1)CCC1C2CC[C@@]2(C)C1CC[C@@H]2OC(C)=O` (stereo partly drawn), the “NORMALIZED SGLT1 ACTIVITY (%)” value rises from 120% to 139%.

First: C=C1C(=O)O[C@H]2[C@H]1CC/C(C)=C/CC[C@@]1(C)O[C@@H]21
Second: C/C1=C/CC(C)(C)/C=C/C/C(C)=C/CC1
The “NORMALIZED SGLT1 ACTIVITY (%)” value of the first is higher: 104% for the first, 84% for the second.

Compared with `COc1ccc2c(c1OC)C(=O)O[C@H]2[C@H]1c2cc3c(cc2CCN1C)OCO3`, `COc1cc(OC)c2c(=O)c(-c3ccccc3)c(C)oc2c1OC` is higher in “NORMALIZED SGLT1 ACTIVITY (%)” value: 111% for the first, 201% for the second.

Going from `CCCCC1(COC(=O)CCC(=O)O)C(=O)N(c2ccccc2)N(c2ccccc2)C1=O` to `CCOC(=O)[C@H](CCc1ccccc1)N[C@@H](C)C(=O)N1Cc2ccccc2C[C@H]1C(=O)O.Cl`, the “NORMALIZED SGLT1 ACTIVITY (%)” value falls from 126% to 124%.

Going from `CCOC(=O)[N-]c1c[n+](N2CCOCC2)no1` to `CC(=O)CC1CCCCN1.Cl` (stereo not drawn), the “NORMALIZED SGLT1 ACTIVITY (%)” value falls from 113% to 86%.

Compared with `c1ccc2[nH]c(-c3cscn3)nc2c1`, `Nc1cc(-c2ccncc2)c[nH]c1=O` is lower in “NORMALIZED SGLT1 ACTIVITY (%)” value: 210% for the first, 192% for the second.

Compared with `C=C(CC)C(=O)c1ccc(OCC(=O)O)c(Cl)c1Cl`, `CN(C)CCC(c1ccccc1)c1ccccn1.O=C(O)/C=C\C(=O)O` (stereo not drawn) is lower in “NORMALIZED SGLT1 ACTIVITY (%)” value: 88% for the first, 82% for the second.

First: CO[C@]12C[C@@H](COC(=O)c3cncc(Br)c3)CN(C)[C@@H]1Cc1cn(C)c3cccc2c13
Second: CC[C@@]1(O)C(=O)OCc2c1cc1n(c2=O)Cc2cc3ccccc3nc2-1
The “NORMALIZED SGLT1 ACTIVITY (%)” value of the first is lower: 187% for the first, 276% for the second.

First: O=C(NC(=O)c1c(F)cccc1F)Nc1cc(Cl)c(OC(F)(F)C(F)C(F)(F)F)cc1Cl (stereo not drawn)
Second: CC(=O)Oc1cc(OC(C)=O)c2c(c1)O[C@H](c1ccc(OC(C)=O)c(OC(C)=O)c1)[C@H](OC(C)=O)C2
The “NORMALIZED SGLT1 ACTIVITY (%)” value of the first is lower: 134% for the first, 163% for the second.

Going from `C#C[C@]1(O)CC[C@H]2[C@@H]3CCC4=Cc5oncc5C[C@]4(C)[C@H]3CC[C@@]21C` to `CC[C@@H]1/C=C/C=C/C[C@H](C)[C@@H](O)[C@](C)(O)C(=O)[C@H](C)[C@@H](O)[C@H](C)C(=O)[C@H](C)[C@@H](O)[C@H](C)/C=C/C(=O)O[C@H]2[C@@H](C)[C@@H](CC1)O[C@@]1(CC[C@@H](C)[C@@H](C[C@H](C)O)O1)[C@@H]2C`, the “NORMALIZED SGLT1 ACTIVITY (%)” value rises from 89% to 198%.

Going from `CCOc1ccc2c(c1)C(C)=CC(C)(C)N2` to `CNC(=O)Oc1cccc2c1OC(C)(C)O2`, the “NORMALIZED SGLT1 ACTIVITY (%)” value rises from 92% to 130%.

First: OC[C@H]1O[C@@H](n2cnc3c(NCc4ccco4)ncnc32)[C@H](O)[C@@H]1O
Second: NNC(=O)c1ccncc1
The “NORMALIZED SGLT1 ACTIVITY (%)” value of the first is higher: 142% for the first, 126% for the second.

`NC1(C(=O)O)CCC1` was tested, and the “NORMALIZED SGLT1 ACTIVITY (%)” value was 81%.
